From PubChem BioAssay AID1347417 (National Center for Advancing Translational Sciences (NCATS), 2020)
Screen size: about 120,000 compounds; about 5,300 (4.4%) were called active. This list was built around the results that the source calls inconclusive (neither active nor inactive); the mix of calls is not that of the screen. The call rests on the fitted dose curve; in most records, active means well fitted inhibition curve with a large enough effect; inconclusive means small, poorly fitted or top-dose-only effect; inactive means no such curve, though single readings can be large or run the other way. Potencies of inconclusive entries are doubtful fits and often do not repeat.

Experiment: qHTS Primary assay for Inhibitors of Plasmodium falciparum Dd2 growth in vitro; further: nearly all actives have a fitted effect of over 65% in size
Details: P. falciparum Dd2 growth, SYBR Green, 72 h; series mostly up to 28.9 µM
How it was run: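 Infected erythrocytes (Dd2, 0.3% parasitemia, 2.5% hematocrit final) are added to compound in RPMI-1640/Albumax II medium, grown 72 h at 37C in low oxygen, then lysed with saponin/Triton-X containing SYBR Green and read by fluorescence.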
Potency means the concentration at half of the fitted maximal effect; tags describe the fitted curve by direction and shape.

Compound	Potency
CC(C)(C)c1ccc(C(=O)N2CCC3(C2)NC(=O)N(Cc2ccc(Cl)cc2)C3=O)cc1 (configuration not stated)	inconclusive: 1.41 µM [inhibitor, full curve, poor fit]
O=C(N[C@H]1C[C@@H](CO)N(CC2CCCCC2)C1)c1cccnc1	inconclusive: 11.2 µM [inhibitor, partial curve]
O=C(CSc1cn(CCNC(=O)c2ccccc2F)c2ccccc12)Nc1ccc(F)cc1	inconclusive: 17.8 µM [inhibitor, partial curve, poor fit]
COc1cccc(N2C(=O)CSC23C(=O)N(CC(=O)Nc2cccc(Cl)c2)c2ccccc23)c1 (configuration not stated)	inconclusive: 12.6 µM [inhibitor, single point]
COc1ccc(Cl)cc1NC(=O)Cn1c(=O)n(CCCC(=O)NCCc2ccc(OC)c(OC)c2)c(=O)c2ccccc21	active: 11.2 µM
COc1ccc2c(C)c(C(=O)N3CCCCC3c3cc(C)on3)oc2c1 (configuration not stated)	inconclusive: 17.8 µM [inhibitor, single point]
COc1cccc(-n2c(SCC(=O)N3CCCc4ccccc43)nc3c([nH]c4ccccc43)c2=O)c1	inconclusive: 17.8 µM [inhibitor, single point]
CCCCN(C)C(=O)c1csc(N2CCN(c3ccccc3)CC2)n1	active: 11.2 µM
CCCOc1ccc(CNC(=O)Cn2cc3c(n2)-c2c(oc(C(=O)N4CCOCC4)c2C)CC3)cc1	inconclusive: 17.8 µM [inhibitor, single point]
CCn1cnnc1CC1CCN(C(=O)c2ccc(OC)cc2OC)C1 (configuration not stated)	inactive
Cc1ccc(Nc2c(-c3ccc(C)cc3)nc3ccc(C)cn23)cc1	inconclusive: 10 µM [inhibitor, single point]
Cc1ccc(CN2C(=O)[C@@H]3C[C@@H](O)CN3C3(CN(Cc4cccs4)C3)C2=O)o1	inconclusive: 20 µM [inhibitor, single point]
COc1ccc(-c2noc(-c3cccn3CC(=O)N3CCN(c4ccc(F)cc4)CC3)n2)cc1F	inactive
CCOc1ccc(-n2cc(-c3ccccc3)c3c(N4CCC(C)CC4)ncnc32)cc1	inconclusive: 10 µM [inhibitor, single point]
COc1ccc(-c2nnc(Nc3ccc(OC)c(C(N)=O)c3)c3ccccc23)cc1	inconclusive: 17.8 µM [inhibitor, single point]
COc1cccc(Nc2csc(CN3CCCC(C)(NC(C)=O)C3)c2)c1 (configuration not stated)	active: 7.94 µM
CCS(=O)(=O)c1nc(S(=O)(=O)c2ccc(C)cc2)c(NC(C)c2ccccc2)s1 (configuration not stated)	inconclusive: 15.8 µM [inhibitor, single point]
